Results taken from PMC4336329 (PLoS ONE, 2015).
The campaign covered roughly 310,000 compounds. About 2,200 (0.71%) showed an effect of 50% or more. The effect is printed as a negative number. The list shows a part of the results.

What follows are molecules tested against human ether-à-go-go-related gene (hERG) potassium channel (human, UniProt Q12809) (assay: primary screen, population patch clamp on CHO cells stably expressing hERG).
Chain of human ether-à-go-go-related gene (hERG) potassium channel (Q12809 whole entry, looked up): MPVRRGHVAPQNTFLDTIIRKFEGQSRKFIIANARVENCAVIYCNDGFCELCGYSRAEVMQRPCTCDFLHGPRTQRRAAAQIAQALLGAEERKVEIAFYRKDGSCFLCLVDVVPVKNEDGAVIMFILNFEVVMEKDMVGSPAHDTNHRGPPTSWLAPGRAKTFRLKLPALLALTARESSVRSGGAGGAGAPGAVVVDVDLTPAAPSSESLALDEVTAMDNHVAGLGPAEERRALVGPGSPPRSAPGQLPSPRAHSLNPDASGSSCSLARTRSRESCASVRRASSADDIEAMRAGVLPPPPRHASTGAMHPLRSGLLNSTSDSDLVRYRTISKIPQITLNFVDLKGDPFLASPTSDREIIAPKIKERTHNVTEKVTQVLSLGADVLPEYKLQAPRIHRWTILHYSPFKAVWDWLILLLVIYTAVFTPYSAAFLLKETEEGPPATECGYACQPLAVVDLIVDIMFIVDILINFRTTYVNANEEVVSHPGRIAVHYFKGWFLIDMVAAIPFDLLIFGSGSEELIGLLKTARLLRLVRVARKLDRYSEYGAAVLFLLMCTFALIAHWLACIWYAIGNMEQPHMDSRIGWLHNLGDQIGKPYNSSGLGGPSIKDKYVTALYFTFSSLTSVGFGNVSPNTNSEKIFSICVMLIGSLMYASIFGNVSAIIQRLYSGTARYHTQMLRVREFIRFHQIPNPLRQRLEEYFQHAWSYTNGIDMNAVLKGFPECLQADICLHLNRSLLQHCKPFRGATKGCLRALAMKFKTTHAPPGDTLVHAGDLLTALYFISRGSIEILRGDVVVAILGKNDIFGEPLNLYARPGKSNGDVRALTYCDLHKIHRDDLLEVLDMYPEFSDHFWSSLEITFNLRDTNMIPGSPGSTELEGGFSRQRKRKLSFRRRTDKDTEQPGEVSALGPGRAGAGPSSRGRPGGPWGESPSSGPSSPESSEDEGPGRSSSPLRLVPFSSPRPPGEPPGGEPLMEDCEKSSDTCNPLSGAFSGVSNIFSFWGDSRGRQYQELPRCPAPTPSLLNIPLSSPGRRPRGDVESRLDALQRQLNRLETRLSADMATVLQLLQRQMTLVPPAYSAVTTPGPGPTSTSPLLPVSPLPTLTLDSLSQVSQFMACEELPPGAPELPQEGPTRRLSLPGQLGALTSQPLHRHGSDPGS
In the case of Nc1[nH]n(-c2ccccc2)c(=O)c1N=Nc1ccccc1[N+](=O)[O-], the “hERG current change (%, negative = inhibition) at 1uM” value is reported as 11.7%.
For CCN(C(=O)Cn1nc(C)c([N+](=O)[O-])c1C)c1c(N)n(Cc2ccccc2)c(=O)[nH]c1=O, the “hERG current change (%, negative = inhibition) at 1uM” value was 13.6%.
For CC(C)c1ccc(N2C(=O)C3C4C=CC(CC4)C3C2=O)cc1 (stereo not shown), the “hERG current change (%, negative = inhibition) at 1uM” value was 19.1%.
Cn1c(=O)[nH]c(=O)c2c1nc(N1CCCCC1)n2C/C=N/Nc1ccc(C(=O)O)cc1 was tested, and the “hERG current change (%, negative = inhibition) at 1uM” value was 13.5%.
With Cc1nc2ccc(NS(=O)(=O)c3ccc(F)c(C)c3)cc2[nH]1 the “hERG current change (%, negative = inhibition) at 1uM” value was 6.71%.
For CC(=C/c1ccccc1)/C=N/NC(=O)c1cc(C)oc1C, the “hERG current change (%, negative = inhibition) at 1uM” value was 11.1%.
In the case of Cc1ccc(Cn2c(C(C)Nc3nc(-c4ccc(F)cc4)cs3)nc3cc(C(=O)NCCCO)ccc32)cc1 (stereo not shown), the “hERG current change (%, negative = inhibition) at 1uM” value is reported as 9.82%.
With N/C(Cc1ccc(Cl)cc1Cl)=N\OC(=O)c1ccccc1F the “hERG current change (%, negative = inhibition) at 1uM” value was -5.79%.
With Cc1ccc(NS(=O)(=O)c2cccc3cccnc23)c(Br)c1 the “hERG current change (%, negative = inhibition) at 1uM” value was 17.5%.
For CCCCC(=O)Nc1cccc(NC(=O)c2ccccc2Br)c1, the “hERG current change (%, negative = inhibition) at 1uM” value was 4.7%.
Cc1ccccc1C(=O)N1N=C(c2cccc(NS(C)(=O)=O)c2)CC1c1cccs1 (stereo not shown) was tested, and the “hERG current change (%, negative = inhibition) at 1uM” value was 10.4%.
In the case of O=C(Nn1cnc2ccccc2c1=O)c1ccc(Br)cc1, the “hERG current change (%, negative = inhibition) at 1uM” value is reported as 10.5%.
With O=C(OCC(O)CN1CCCCC1)C12CC3CC(CC(C3)C1)C2 (stereo not shown) the “hERG current change (%, negative = inhibition) at 1uM” value was -0.966%.
With COc1ccccc1NC(C)=[N+](C)CCNS(=O)(=O)c1ccc(Cl)cc1.[I-] the “hERG current change (%, negative = inhibition) at 1uM” value was -28.4%.
With CC(=O)Nc1ccc(NC(=S)Nc2ccc(Br)cc2)cc1 the “hERG current change (%, negative = inhibition) at 1uM” value was 6.16%.
For NC(=S)/N=C/c1c(O)[nH]c(=O)[nH]c1=O, the “hERG current change (%, negative = inhibition) at 1uM” value was 8.13%.
For NS(=O)(=O)c1ccc(NC2=CC(c3ccc(F)cc3)N(c3ccc(S(N)(=O)=O)cc3)C2=O)cc1 (stereo not shown), the “hERG current change (%, negative = inhibition) at 1uM” value was 11.9%.
O=C(Nc1ccc2c(c1)OCCO2)c1cccc(Cl)c1Cl was tested, and the “hERG current change (%, negative = inhibition) at 1uM” value was 8.88%.
With CNC(=O)COC(=O)c1[nH]c(C)c(C(C)=O)c1C the “hERG current change (%, negative = inhibition) at 1uM” value was 13.1%.
With COC(=O)C1=C(CSc2nc3ccccc3o2)NC(=O)NC1c1cc(C)ccc1C (stereo not shown) the “hERG current change (%, negative = inhibition) at 1uM” value was 4.74%.
With COc1cccc(-n2nnnc2SCC(=O)NCc2ccc3c(c2)OCO3)c1 the “hERG current change (%, negative = inhibition) at 1uM” value was 6.2%.
For CC(C)c1nc(NCCO)c2nnn(Cc3ccccc3)c2n1, the “hERG current change (%, negative = inhibition) at 1uM” value was 12.6%.
For COc1ccc(NC(=O)CN(C)C(=O)c2cc(S(=O)(=O)N(C)C)ccc2N2CCCC2)cc1, the “hERG current change (%, negative = inhibition) at 1uM” value was -4.85%.
With COc1cc(/C=N/NC(=O)CC23CC4CC(CC(C4)C2)C3)cc(Br)c1OCC(=O)N(C)C the “hERG current change (%, negative = inhibition) at 1uM” value was 11.8%.
COc1ccc(C(=O)C(=O)c2ccc(OCCO)cc2)cc1 was tested, and the “hERG current change (%, negative = inhibition) at 1uM” value was 10.8%.
For CC1CCCCN1c1nnc(N)s1 (stereo not shown), the “hERG current change (%, negative = inhibition) at 1uM” value was 7.66%.
O=c1[nH]c(N2CCN(Cc3ccc4c(c3)OCO4)CC2)nc2c1CCCC2 was tested, and the “hERG current change (%, negative = inhibition) at 1uM” value was 11.9%.
With O=c1c(C=NCCN2CCNCC2)c(O)n(C2CCCCC2)c(=O)n1C1CCCCC1 the “hERG current change (%, negative = inhibition) at 1uM” value was -13.1%.
Nc1c(N2CCOCC2)cc(Cl)c2nonc12 was tested, and the “hERG current change (%, negative = inhibition) at 1uM” value was -29.9%.
COc1ccc(NS(=O)(=O)c2cc(NC(=O)[C@@H](NC(N)=O)C(C)C)ccc2C)cc1 was tested, and the “hERG current change (%, negative = inhibition) at 1uM” value was 15.4%.
For CN1CCN(S(=O)(=O)c2ccc(C#N)cc2)C(c2ccccc2)C1.Cl (stereo not shown), the “hERG current change (%, negative = inhibition) at 1uM” value was 1.09%.
O=C(NNC(=O)c1ccc[nH]1)Nc1cccc(C(F)(F)F)c1 was tested, and the “hERG current change (%, negative = inhibition) at 1uM” value was 16.9%.
With COc1ccc([C@H]2CC(=O)C=C(c3ccc(Cl)c(F)c3)C2)cc1 the “hERG current change (%, negative = inhibition) at 1uM” value was 12.7%.
In the case of O=C1CN(C(=O)/C=C/c2cc(Br)ccc2F)CCN1, the “hERG current change (%, negative = inhibition) at 1uM” value is reported as 10.7%.
In the case of COc1cccc(N(CC(=O)O)S(=O)(=O)c2ccccc2)c1, the “hERG current change (%, negative = inhibition) at 1uM” value is reported as 6.43%.
With COC(=O)C1=CN(Cc2ccc(OC)cc2)C=C(C(=O)OC)C1c1ccc(O)c(OC)c1 the “hERG current change (%, negative = inhibition) at 1uM” value was 16.5%.
With COC(=O)c1cc(S(=O)(=O)NCC2CCN(CCc3ccc(OC)cc3)CC2)c[nH]1 the “hERG current change (%, negative = inhibition) at 1uM” value was -23.4%.
CC(C)(C)c1ccc(C(=O)NC(=S)NNC(=O)COc2ccccc2)cc1 was tested, and the “hERG current change (%, negative = inhibition) at 1uM” value was 16.8%.
CC1CC(C)(C)NCCNC(C)CC(C)(C)NCCN1 (stereo not shown) was tested, and the “hERG current change (%, negative = inhibition) at 1uM” value was 0.686%.
CCOC(=O)C(NC(=O)CC(C)C)(Nc1cc(C)on1)C(F)(F)F (stereo not shown) was tested, and the “hERG current change (%, negative = inhibition) at 1uM” value was -0.624%.
With O=C(O)c1ccc2c(c1)S(=O)(=O)c1ccccc1C2=O the “hERG current change (%, negative = inhibition) at 1uM” value was 11.3%.
CCCCCn1c(N2CCC(C(N)=O)CC2)nc2c1c(=O)[nH]c(=O)n2C was tested, and the “hERG current change (%, negative = inhibition) at 1uM” value was 7.56%.
For Cc1cc(Cl)ccc1NC(=O)COC(=O)c1cc([N+](=O)[O-])ccc1N1CCOCC1, the “hERG current change (%, negative = inhibition) at 1uM” value was -17.5%.
With O=C(CSc1nnc(Nc2ccccc2)s1)NCc1ccco1 the “hERG current change (%, negative = inhibition) at 1uM” value was 1.01%.
In the case of Cc1nnc(SCc2nnc(-c3ccc(Cl)cc3)o2)n1-c1ccccc1, the “hERG current change (%, negative = inhibition) at 1uM” value is reported as -9.9%.
In the case of N#Cc1ccc(COC(=O)c2cccnc2Cl)cc1, the “hERG current change (%, negative = inhibition) at 1uM” value is reported as -18.1%.
CCC/C(O)=C1\C(=O)CC(c2ccccc2)CC1=NCCc1c(C)[nH]c2ccccc12 (stereo not shown) was tested, and the “hERG current change (%, negative = inhibition) at 1uM” value was -13.5%.
In the case of CCCCC(NC(C)=O)c1nc2ccccc2[nH]1 (stereo not shown), the “hERG current change (%, negative = inhibition) at 1uM” value is reported as 18.1%.
O=C(Nc1cccc2cccnc12)c1ccc(Cl)cc1 was tested, and the “hERG current change (%, negative = inhibition) at 1uM” value was 11.8%.
Cc1cccc(C(=O)N2CCN(C(=O)c3cccc(C)c3)C(C)C2)c1 (stereo not shown) was tested, and the “hERG current change (%, negative = inhibition) at 1uM” value was 9.14%.
Cn1c(Cl)c(/C=N/OC(=O)C2CC2)c2ccccc21 was tested, and the “hERG current change (%, negative = inhibition) at 1uM” value was 12.4%.
For Cc1cc(C(=O)Nn2cnnc2)cs1, the “hERG current change (%, negative = inhibition) at 1uM” value was 7.74%.
COC(=NC(C)C)NC(C)C was tested, and the “hERG current change (%, negative = inhibition) at 1uM” value was 12%.
O=C(NCC1CCCC(CNC(=O)Nc2ccc(Cl)cn2)C1)Nc1ccc(Cl)cn1 (stereo not shown) was tested, and the “hERG current change (%, negative = inhibition) at 1uM” value was 7.34%.
For CC(C)(C#N)Nc1ccccc1, the “hERG current change (%, negative = inhibition) at 1uM” value was 12.9%.
In the case of COC(=O)c1nccc2c1[nH]c1ccccc12, the “hERG current change (%, negative = inhibition) at 1uM” value is reported as 12.4%.
In the case of COC(=O)CN(c1c(C)cccc1C)S(C)(=O)=O, the “hERG current change (%, negative = inhibition) at 1uM” value is reported as 0.347%.
With O=C(COC(=O)COc1ccc(Cl)cc1Br)NC1CCCCCC1 the “hERG current change (%, negative = inhibition) at 1uM” value was 3.14%.
